Some of the results follow.
T1: UNK ZnF1-6 (called full-length) (human, UniProt Q9C0B0 30-357)
T1 sequence: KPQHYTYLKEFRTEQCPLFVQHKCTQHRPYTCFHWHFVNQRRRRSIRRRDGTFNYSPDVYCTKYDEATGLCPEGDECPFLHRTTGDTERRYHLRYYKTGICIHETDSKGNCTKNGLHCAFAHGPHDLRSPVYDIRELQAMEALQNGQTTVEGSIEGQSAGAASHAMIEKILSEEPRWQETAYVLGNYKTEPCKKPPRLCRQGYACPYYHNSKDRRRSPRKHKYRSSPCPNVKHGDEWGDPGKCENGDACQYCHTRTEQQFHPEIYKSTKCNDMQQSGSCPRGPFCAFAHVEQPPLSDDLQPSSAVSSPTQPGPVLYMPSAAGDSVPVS

B1: chr1:169690664:169691783:-|three_prime_utr|ENSG00000188404|control|control|control (ssRNA)
RNA: GGGAGUUCUACAGUCCGACGAUCAGUUUUCUUGCAGAUCAAAUUUCACGUCGUCUUCUGUAUACUGUGGAGGUACACUCUUAUAGAAAGUUCAAAAAGUCUACGCUCUCCUUUCUUUCUAACUCCAGUGAAGUAAUGGGGUCCCAACAGAGGAUUGAGCAUCA
B2: chr1:40238196:40238297:+|CDS|ENSG00000117000|msi1|FALSE|unique (ssRNA)
RNA: GGGAGUUCUACAGUCCGACGAUCCGGUAUUCCCCAUUUCAGUGUCAUAUUUGCCAAAGGUCAUUUACAAGAAAAACACACCUUAGGAUUCAUUAUAAAAAUAAACAUCAAAUUGGCAGUGACAGAGCAACUCACAAACUAUUACAACAGAGGAUUGAGCAUCA
B3: chr8:17753977:17754079:-|CDS|ENSG00000129422|unk|total|mutant (ssRNA)
RNA: GGGAGUUCUACAGUCCGACGAUCAAAAAAGCAGAAAUUCUAAUUAACAAGACACAUAAGCAGCAGUUUAAUAAACUCAUUACCCGCCAGGCUGUGCAUGUUACAACUCAUUCUAAAAAUGCUUCACACAGGGUUCCAAGAACACAACAGAGGAUUGAGCAUCA
B4: chr5:181194513:181194614:-|3pUTR|ENSG00000146054|unk|total|mutant (ssRNA)
RNA: GGGAGUUCUACAGUCCGACGAUCUCUUUGAGUGACAAGCCCGGGACAACAGCCAGUGGGCAUCACGGCUCUCCAGCACUCCUCCGCCGGAGGAUACAGAGUGAUGGGUGCAUCCUGACCAAUGCGACAACCAACACGUGCUCUCAACAGAGGAUUGAGCAUCA
B5: chr20:32656575:32657945:-|three_prime_utr|ENSG00000285382|control|control|control (ssRNA)
RNA: GGGAGUUCUACAGUCCGACGAUCAACCUCCACCUCCCAGGUUCAAGGGAUUCUUCUGCCUCAGCCUCCUGAGUAACUGGGAUUAGGGGUGCCCACCACCAUGUCUGGCUAAUUUUUAUAUUUUUAGUAGAGACGGGGUUUUGCCAACAGAGGAUUGAGCAUCA
B6: chr17:35976492:35977731:-|three_prime_utr|ENSG00000275152|control|control|control (ssRNA)
RNA: GGGAGUUCUACAGUCCGACGAUCAUUAUUACAGCAAAGAAUGGUCAACCCCAGCUCCUCAACUCCCAGUGAUGACCAGGCUUUAGUGGAAGCCCUUGUUUACAGAAGAGAGGGGUAAACCUAUGAAAACAGGGGAAGCCUUAUCAACAGAGGAUUGAGCAUCA
B7: ENSG00000115380:stop:overlap|stop_codon|ENSG00000115380|stop_codon|NA|stop_codon (ssRNA)
RNA: GGGAGUUCUACAGUCCGACGAUCGGACCUUCCGCACAAGCUCUGUGUUAAGAUUGACAAUAAUAGUGGGGCCAUUUUCAUUUUAGUCUUUUCUAAGAGUCAACCACAGGCAUUUAAGUCAGCCAAAGAAUAUUGUUACCUUAACAACAGAGGAUUGAGCAUCA
B8: chr12:39553410:39553513:-|3pUTR|ENSG00000173208|unk|total|mutant (ssRNA)
RNA: GGGAGUUCUACAGUCCGACGAUCUAAGAUUCAAACUUUGAGUGACAUUCCGUCCAUUUAUGGUUGAUAUCCGGUUUAACCGCCCGAAUUCAAAUUGAUUAUUGCCCGUGGCCAACUAAACCUGUACAAAACCGCUGACAGUUUCAACAGAGGAUUGAGCAUCA
B9: chr7:20410151:20410448:+|3pUTR|ENSG00000105855|msi1|total|mutant (ssRNA)
RNA: GGGAGUUCUACAGUCCGACGAUCACCCGUGUCGUUGCCGCACUUUACUGUAAUAUAUAACUUAUUCCGAUCAGCACCGAAUGCCGAUCCUCUGAAGAGCACUGAUUACACUUUACAGGUACCUGUUAUCCCUACGCUUCCCAGCAACAGAGGAUUGAGCAUCA
B10: chr3:50258797:50258898:+|3pUTR|ENSG00000114353|msi1|total|mutant (ssRNA)
RNA: GGGAGUUCUACAGUCCGACGAUCGCACAAGAAGCGUGAGACGCCACCAUUCCUGGAAACCACAGUCCACCUGCUCAUUCUCGCCGCUUUUUAAAAAAAUGAAAGUAAAGGAAAAAAAAAAAACUGCAAAUCCCGAAAACUUUUCAACAGAGGAUUGAGCAUCA
B11: ENSG00000013293:stop:overlap|stop_codon|ENSG00000013293|stop_codon|NA|stop_codon (ssRNA)
RNA: GGGAGUUCUACAGUCCGACGAUCAACACAAACAGAACUCAGAGGCCCUGAUUGCAAAUGAUGAGUUAGAUUACUCUCCAGAGUAGGAGAAACACACAAGUGGGUAGAAAUGGUGAUGACUGAUUUUCAGUAACUUAACCUGUGCAACAGAGGAUUGAGCAUCA
B12: chr6:110609977:110614534:-|three_prime_utr|ENSG00000155111|control|control|control (ssRNA)
RNA: GGGAGUUCUACAGUCCGACGAUCAUUUAAAACUCAUACACAUGGGAGGAAAACCUUAUAUACUGAGCAUUGUGCAGGACUGAUAGCUCUUCUUUAUUGACUUAAAGAAGAUUCUUGUGAAGUUUCCCCAGCACCCCUUCCCUGCAACAGAGGAUUGAGCAUCA
B13: chr15:65454262:65454415:-|CDS|ENSG00000074603|control|control|control (ssRNA)
RNA: GGGAGUUCUACAGUCCGACGAUCAAUUGACGAUCAGGUGGAAGGACUCCAAUAUCUAGCUUCUCGAUAUGAUUUCAUUGACUUAGAUCGUGUGGGCAUCCACGGCUGGUCCUAUGGAGGAUACCUCUCCCUGAUGGCAUUAAUCAACAGAGGAUUGAGCAUCA
B14: ENSG00000198589:be:win_2501|CDS|ENSG00000198589|bound_else_gene|NA|bound_elsewhere_windowed (ssRNA)
RNA: GGGAGUUCUACAGUCCGACGAUCAGAGCAUGGAGGUUCGCAGAGCCUUUCUUUCUGACAUGAUUAAACUUUUUAAUAACAGUAGAGAAAACAGGAGGAGCUUGCUACAAUGCUCUGUGUGGCAAGAAUGGAUGCUUUCUCUCUCAACAGAGGAUUGAGCAUCA

target: T1, UNK ZnF1-6 (called full-length); assay: nsRBNS (natural sequence RNA bind-n-seq); RBNS binding buffer (assumed for nsRBNS): 25 mM Tris pH 7.5, 150 mM KCl, 3 mM MgCl2, 0.01% Triton X-100, 500 ug/ml BSA, 20 U/ml SUPERase-In, 4 C; UNK is unkempt and MSI1 is Musashi-1; names of the RNAs are library labels; protein concentration not given here; high values mean tight binding

| Binder | binding signal [enrichment R] |
| --- | --- |
| B1 | 0.51 |
| B2 | 1.3 |
| B3 | 0.339 |
| B4 | 0.519 |
| B5 | 1.28 |
| B6 | 0.777 |
| B7 | 0.485 |
| B8 | 0.231 |
| B9 | 0.518 |
| B10 | 0.636 |
| B11 | 0.921 |
| B12 | 0.328 |
| B13 | 1.03 |
| B14 | 0.506 |
